The target of assay [1] is T1, human IGF1R extracellular domain, recombinant, His tag at C-terminus (human).
T1 construct: also called human IGF1R ECD; ECD of IGF1R
In words: ELISA on ECD of IGF1R, bispecific form.

Assay [2] concerns the target T1, human IGF1R extracellular domain, …. The assay can be described thus: ELISA on ECD of IGF1R, bispecific form. The source holds these as a separate data set.
The target in assay [3] is T2, monkey IGF1R, recombinant, His tag at C-terminus (monkey).
T2 construct: also called Monkey IGF1R (National Research Council Canada)
In words: ELISA, monkey IGF1R coated, anti-human Fab HRP. (In general: In an ELISA, binding on a coated surface is turned into a signal by an enzyme label.)

For assay [4], the target named is T3, rat IGF1R, recombinant, His tag at C-terminus (rat, UniProt P24062, in part).
T3 construct: also called rat IGF1R (National Research Council Canada)
In words: ELISA, rat IGF1R coated, anti-human Fab HRP.

The target in assay [5] is T4, mouse IGF1R, recombinant, His tag at C-terminus (mouse, UniProt Q60751, in part).
T4 construct: also called mouse IGF1R (R&D systems, 6630-GR/CF)
The assay can be described thus: ELISA, mouse IGF1R coated, anti-human Fab HRP.

Like-named read-outs stand apart in the source and are kept apart here.

Usually EC50 stands for the concentration giving half of the maximal effect.

B1: ch11F11-F06 (bispecific antibody form of 1564 affinity variant F06) (bispecific antibody)
heavy: EVQLQESGGGLVQPGGSLRLSCATSGFTFSDFYMEWVRQPPGKRLEWIAASRNKANDYTTEYSASVKGRFIVSRDTSQSILYLQMNALRAEDTAIYYCARDAHGKPFAYWGQGTLVTVSA[human IgG1 constant region cut from this listing]GGGGSGGGGSGGGGSQSVLTQPPSASGTPGQRVTISCTGSSSNIGSNDVSWYQQLPGTAPKLLIYANSNRPSGVSDRFSGSKSGTSASLAISGLRSEDEADYYCGTWAGSLNGYVFGCGTKLTVLGGGGSGGGGSGGGGSGGGGSEVQLLESGGGLVQPGGSLRLSCAASGFTFSSYDMSWVRQAPGKCLEWVSAISYDNGNTYYADSVKGRFTISRDNSKNTLYLQMNSLRAEDTAVYYCAKGVLTTLMNWFDYWGQGTLVTVSS
light: DIVMTQSPSSLAVSVGEKVTMS[about 80 residues cut from this listing][about 120 residues cut from this listing]
Consider B1, for which the values for the EC50 in assay [1] and in assay [2] were 0.467 nM and 0.857 nM, respectively.

B2: ch11F11-48G5 (bivalent bispecific antibody) (bispecific antibody)
chain 1: EVQLQESGGGLVQPGGSLRLSCATSGFTFSDFYMEWVRQPPGKRLEWIAASRNKANDYTTEYSASVKGRFIVSRDTSQSILYLQMNALRAEDTAIYYCARDAHGKPFAYWGQGTLVTVSA[human IgG1 constant region cut from this listing]GGGGSGGGGSGGGGSQSVLTQPPSASGTPGQRVTISCSGSSSNIGNNDVSWYQQLPGTAPKLLIYDNNHRPSGVPDRFSGSKSGTSASLAISGLRSEDEADYYCAAWDDSLNAYVFGCGTKLTVLGGGGSGGGGSGGGGSGGGGSEVQLLESGGGLVQPGGSLRLSCAASGFTFSDYDMSWVRQAPGKCLEWVSSIYPNGSSKYYADSVKGRFTISRDNSKNTLYLQMNSLRAEDTAVYYCAKAGINCTTLRCSSYDAMDVWGQGTLATVSS
chain 2: DIVMTQSPSSLAVSVGEKVTMS[about 80 residues cut from this listing]FGGGTKLEIK
Turning to B2, the 50% effective concentration (EC50) in assay [3] worked out at 6.69 nM; in assay [4] it was 2.44 nM; in assay [5] it was 6.2 nM.

B3: ch11F11-B09 (bispecific antibody form of 1564 affinity variant B09) (bispecific antibody)
chain 1: EVQLQESGGGLVQPGGSLRLSCATSGFTFSDFYMEWVRQPPGKRLEWIAASRNKANDYTTEYSASVKGRFIVSRDTSQSILYLQMNALRAEDTAIYYCARDAHGKPFAYWGQGTLVTVSA[human IgG1 constant region cut from this listing]GGGGSGGGGSGGGGSQSVLTQPPSASGTPGQRVTISCTGSSSNIGSNDVSWYQQLPGTAPKLLIYANSNRPSGVSDRFSGSKSGTSASLAISGLRSEDEADYYCGAWEESLNGYVFGGGTKLTVLGGGGSGGGGSGGGGSGGGGSEVQLLESGGGLVQPGGSLRLSCAASGFTFSSYDMSWVRQAPGKGLEWVSAISYDNGNTYYADSVKGRFTISRDNSKNTLYLQMNSLRAEDTAVYYCAKGVLTTLMNWFDYWGQGTLVTVSS
chain 2: DIVMTQSPSSLAVSVGEKVTMS[about 80 residues cut from this listing]FGGGTKLEIK
Regarding B3, the EC50 in assay [1] was 1.08 nM.

B4: ch11F11-A06 (bispecific antibody form of 1564 affinity variant A06) (bispecific antibody)
chain 1: EVQLQESGGGLVQPGGSLRLSCATSGFTFSDFYMEWVRQPPGKRLEWIAASRNKANDYTTEYSASVKGRFIVSRDTSQSILYLQMNALRAEDTAIYYCARDAHGKPFAYWGQGTLVTVSA[human IgG1 constant region cut from this listing]GGGGSGGGGSGGGGSQSVLTQPPSASGTPGQRVTISCTGSSSNIGSNDVSWYQQLPGTAPKLLIYANSNRPSGVSDRFSGSKSGTSASLAISGLRSEDEADYYCGASWDEWLNGYVFGGGTKLTVLGGGGSGGGGSGGGGSGGGGSEVQLLESGGGLVQPGGSLRLSCAASGFTFSSYDMSWVRQAPGKGLEWVSAISYDNGNTYYADSVKGRFTISRDNSKNTLYLQMNSLRAEDTAVYYCAKGVLTTLMNWFDYWGQGTLVTVSS
chain 2: DIVMTQSPSSLAVSVGEKVTMS[about 80 residues cut from this listing]FGGGTKLEIK
As for B4, the EC50 in assay [1] amounted to 1.19 nM.

B5: ch11F11-B02 (bispecific antibody form of 1564 affinity variant B02) (bispecific antibody)
chain 1: EVQLQESGGGLVQPGGSLRLSCATSGFTFSDFYMEWVRQPPGKRLEWIAASRNKANDYTTEYSASVKGRFIVSRDTSQSILYLQMNALRAEDTAIYYCARDAHGKPFAYWGQGTLVTVSA[human IgG1 constant region cut from this listing]GGGGSGGGGSGGGGSQSVLTQPPSASGTPGQRVTISCTGSSSNIGSNDVSWYQQLPGTAPKLLIYANSNRPSGVSDRFSGSKSGTSASLAISGLRSEDEADYYCGTWDDSLNGYVFGGGTKLTVLGGGGSGGGGSGGGGSGGGGSEVQLLESGGGLVQPGGSLRLSCAASGFTFSSYDMSWVRQAPGKGLEWVSAISYDNGNTYYADSVKGRFTISRDNSKNTLYLQMNSLRAEDTAVYYCAKGVLTTLMNWFDYWGQGTLVTVSS
chain 2: DIVMTQSPSSLAVSVGEKVTMS[about 80 residues cut from this listing]FGGGTKLEIK
As to B5, the EC50 in assay [1] was found to be 0.919 nM.

B6: ch11F11-B11 (bivalent bispecific antibody) (bispecific antibody)
chain 1: EVQLQESGGGLVQPGGSLRLSCATSGFTFSDFYMEWVRQPPGKRLEWIAASRNKANDYTTEYSASVKGRFIVSRDTSQSILYLQMNALRAEDTAIYYCARDAHGKPFAYWGQGTLVTVSA[human IgG1 constant region cut from this listing]GGGGSGGGGSGGGGSQSVLTQPPSASGTPGQRVTISCSGSSSNIGNNDVSWYQQLPGTAPKLLIYDDNHRPSGVPDRFSGSKSGTSASLAISGLRSEDEADYYCGAWDYSLSGYVFGCGTKLTVLGGGGSGGGGSGGGGSGGGGSEVQLLESGGGLVQPGGSLRLSCAASGFTFSDYDMSWVRQAPGKCLEWVSAISYDNGNKYYADSVKGRFTISRDNSKNTLYLQMNSLRAEDTAVYYCAKAGVACTEHMCSSYDAMDVWGQGTLVTVSS
chain 2: DIVMTQSPSSLAVSVGEKVTMS[about 80 residues cut from this listing]FGGGTKLEIK
B6: the EC50 amounted to 180 nM in assay [3], 35.1 nM in assay [4] and 148 nM in assay [5].

B7: ch11F11-60H6 (bivalent bispecific antibody) (bispecific antibody)
chain 1: EVQLQESGGGLVQPGGSLRLSCATSGFTFSDFYMEWVRQPPGKRLEWIAASRNKANDYTTEYSASVKGRFIVSRDTSQSILYLQMNALRAEDTAIYYCARDAHGKPFAYWGQGTLVTVSA[human IgG1 constant region cut from this listing]GGGGSGGGGSGGGGSQSVLTQPPSASGTPGRRVTISCTGSSSNIGNNDVSWYQQLPGTAPKLLIYANSHRPSGVPDRFSGSKSGTSASLAISGLRSEDEADYYCGSWDDSLNGYVFGCGTKLTVLGGGGSGGGGSGGGGSGGGGSEVQLLESGGGLVQPGGSLRLSCAASGFTFSDYDMSWVRQAPGKCLEWVSMIYSGSSSKYYADSVKGRFTISRDNSKNTLYLQMNSLRAEDTAVYYCARASIACTLQACSYDNAMDVWGQGTLVTVSS
chain 2: DIVMTQSPSSLAVSVGEKVTMS[about 80 residues cut from this listing]FGGGTKLEIK
Regarding B7, the EC50 in assay [4] was determined as 38 nM; in assay [5], 18.6 nM.

B8: ch11F11-54H4 (bivalent bispecific antibody) (bispecific antibody)
chain 1: EVQLQESGGGLVQPGGSLRLSCATSGFTFSDFYMEWVRQPPGKRLEWIAASRNKANDYTTEYSASVKGRFIVSRDTSQSILYLQMNALRAEDTAIYYCARDAHGKPFAYWGQGTLVTVSA[human IgG1 constant region cut from this listing]GGGGSGGGGSGGGGSQSVLTQPPSASGTPGQRVTISCSGSSSNIGSNTVTWYQQLPGTAPKLLIYADSKRPSGVPDRFSGSKSGTSASLAISGLRSEDEADYYCGTWDDSLNAYVFGCGTKLTVLGGGGSGGGGSGGGGSGGGGSEVQLLESGGGLVQPGGSLRLSCAASGFTFSDYDMSWVRQAPGKCLEWVSAISSDGSSAYYAASVKGRFTISRDNSKNTLYLQMNSLRAEDTAVYYCAKATIYTSDAPWSSYDAMDVWGQGTLVTVSS
chain 2: DIVMTQSPSSLAVSVGEKVTMS[about 80 residues cut from this listing]FGGGTKLEIK
B8: the EC50 in assay [3] amounted to 8.83 nM; in assay [4] it was 14.2 nM.

B9: ch11F11-E06 (bispecific antibody form of 1564 affinity variant E06) (bispecific antibody)
chain 1: EVQLQESGGGLVQPGGSLRLSCATSGFTFSDFYMEWVRQPPGKRLEWIAASRNKANDYTTEYSASVKGRFIVSRDTSQSILYLQMNALRAEDTAIYYCARDAHGKPFAYWGQGTLVTVSA[human IgG1 constant region cut from this listing]GGGGSGGGGSGGGGSQSVLTQPPSASGTPGQRVTISCTGSSSNIGSNDVSWYQQLPGTAPKLLIYANSNRPSGVSDRFSGSKSGTSASLAISGLRSEDEADYYCGAWDHSLNGYVFGGGTKLTVLGGGGSGGGGSGGGGSGGGGSEVQLLESGGGLVQPGGSLRLSCAASGFTFSSYDMSWVRQAPGKGLEWVSAISYDNGNTYYADSVKGRFTISRDNSKNTLYLQMNSLRAEDTAVYYCAKGVLTTLMNWFDYWGQGTLVTVSS
chain 2: DIVMTQSPSSLAVSVGEKVTMS[about 80 residues cut from this listing]FGGGTKLEIK
For B9, in assay [1], the EC50 was 0.668 nM.

B10: ch11F11-D03 (bispecific antibody form of 1564 affinity variant D03) (bispecific antibody)
chain 1: EVQLQESGGGLVQPGGSLRLSCATSGFTFSDFYMEWVRQPPGKRLEWIAASRNKANDYTTEYSASVKGRFIVSRDTSQSILYLQMNALRAEDTAIYYCARDAHGKPFAYWGQGTLVTVSA[human IgG1 constant region cut from this listing]GGGGSGGGGSGGGGSQSVLTQPPSASGTPGQRVTISCTGSSSNIGSNDVSWYQQLPGTAPKLLIYANSNRPSGVSDRFSGSKSGTSASLAISGLRSEDEADYYCGAWDDSLNGYVFGGGTKLTVLGGGGSGGGGSGGGGSGGGGSEVQLLESGGGLVQPGGSLRLSCAASGFTFSSYDMSWVRQAPGKGLEWVSAISYDNGQTYYADSVKGRFTISRDNSKNTLYLQMNSLRAEDTAVYYCAKGVLTTLMNWFDYWGQGTLVTVSS
chain 2: DIVMTQSPSSLAVSVGEKVTMS[about 80 residues cut from this listing]FGGGTKLEIK
As to B10, in assay [1], the EC50 was found to be 0.666 nM.

The record behind these values is patent US20220348665A1 (ABL BIO, published 2022).
